Source: PubChem BioAssay (NCI)
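Five compound concentrations were applied to cells in 96-well plates for 48 hours; endpoints were derived by simple linear interpolation of the resulting dose-response curve. The concentration for 50% growth inhibition is given as GI50. The concentration for full growth arrest is given as TGI.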

System: NCI-H322M lung
Assay: NCI tumour cell line growth inhibition, 48 h

Point of comparison: `Fc1ccc(Nc2nc3ccccc3c3occc23)cc1`, TGI 3.81 µM. Against it:
- CC[C@H](C)[C@H](NC(=O)[C@@]1(O)[C@H](O)[C@]2(CC)C=CCN3CC[C@@]4(c5cc(Br)c(OC)cc5N(C)[C@@H]14)[C@@H]32)C(=O)OC — higher, > 100 µM
- O=C1C2C3C=CC(C2C(=O)N1CN1CCSCC1)C1C2C(=O)N(CN4CCSCC4)C(=O)C2C31 (stereo not drawn) — higher, > 100 µM
- COc1cc(/C=C/C(=O)c2c(C)nc3ccccc3c2C)ccc1OCCCN1CCN(C(=O)c2ccco2)CC1 — 7-fold higher, 26.8 µM
- CCOC(=O)C1(Br)S(=O)(=O)OCCOS1(=O)=O — higher, > 100 µM
- COC1CC(O[C@H]2CC[C@@]3(C)[C@@H](CC[C@]4(O)[C@@H]3CC[C@]3(C)[C@@H](C(C)=O)[C@H](OC(=O)CC(C)C)[C@@H](OC(=O)c5ccccc5)[C@@]34O)C2)OC(C)C1OC1CC(OC)C(OC2OC(C)C(O)C(OC)C2O)C(C)O1 (stereo partly drawn) — higher, > 25 µM
- CC(=O)O[C@H]1CC2C=CC3C(CCC31)O2 (stereo partly drawn) — higher, > 100 µM
- COC(=O)C1=NN2c3ccccc3CN([C@@H](C)c3ccccc3)C(=O)[C@@H]2[C@H]1c1ccccc1 — higher, > 100 µM
- CCCCCCCCC/C=C1/CC(CO)(COC(=O)c2ccccc2)OC1=O (stereo not drawn) — 9.8-fold higher, 37.3 µM
- O=c1c2c(c1=O)-c1ccccc1CN2 — higher, > 100 µM
- O=C1C(S(=O)(=O)c2ccccc2)=C(CS(=O)(=O)c2ccccc2)[C@@H](OCc2ccccc2)[C@@H]1OCc1ccccc1 — 25-fold higher, 93.8 µM
- C=CC1(C)OC2(CCN(C(=O)OCC)CC2)OC1C (stereo not drawn) — higher, > 100 µM
- Nc1nc(=S)n(-c2ccc(Cl)cc2)c2nc3ccccc3cc12 — higher, > 100 µM
- [CH3][Sn]([CH3])([CH3])[O][N+](=O)[O-] — higher, > 10 µM
- NC(=O)C(=CNC(=S)Nc1cccc(C(F)(F)F)c1)C(N)=O — higher, > 100 µM
- O=C1C=CC2(C=C1)C[C@H](NC(=O)OCc1ccccc1)C(=O)O2 — higher, > 72.1 µM
- S=C=NC1CCC(c2cc3ccccc3s2)(N2CCCCC2)CC1 (stereo not drawn) — 4.2-fold higher, 16 µM
- O=C1NC(c2cccc(OCc3ccccc3)c2)Nc2ccccc21 (stereo not drawn) — 15-fold higher, 58.8 µM
- Cc1ccc(S(=O)(=O)Nc2ccc(-c3cc(-c4cccc(F)c4)c(C#N)c(N)n3)cc2)cc1 — 4.1-fold higher, 15.5 µM
- C[CH2][Sn]([CH2]C)([O]C(=O)c1ccc(OC)c(OC)c1OC)[O]C(=O)c1ccc(OC)c(OC)c1OC — higher, > 100 µM
- CC1CC[P+](c2ccccc2)(c2ccccc2)CC1 — higher, > 100 µM
- CC(C)C1N2CCCCC2[C@@H]2c3[nH]c4ccccc4c3CCN12 (stereo partly drawn) — higher, > 100 µM
- Cc1cc(Cl)ccc1NC(=O)C(=O)C(C(=O)c1ccccc1)C1OC(=O)c2ccccc21 (stereo not drawn) — higher, > 100 µM
- O=[N+]([O-])c1cccc(N=Nc2c(O)ccc3ccccc23)c1 — higher, > 100 µM
- CCOC(=O)C(CCc1ncnc2c1ncn2Cc1ccccc1)(CCc1ncnc2c1ncn2Cc1ccccc1)C(=O)OCC — higher, > 100 µM
- COC(=O)C1(C)NCCc2c1[nH]c1ccccc21 (stereo not drawn) — higher, > 100 µM
- O=c1c(Cl)cc2nc3ccccc3sc-2c1Cl — 8-fold higher, 30.5 µM
- CN(C)c1ccc(N=C2C=CC(=O)c3ccccc32)cc1 — 3.1-fold higher, 11.9 µM
- CC1=CCC2CC1NC(=O)CCOCCC(=O)NC2(C)C (stereo not drawn) — higher, > 100 µM
- C[C@@H](Oc1cc(-n2cnc3ccc(OC[C@@H](O)CO)cc32)sc1C(N)=O)c1ccccc1Cl — higher, > 25 µM
- CCC[CH2][Pb]([Cl])([CH2]CCC)[CH2]CCC — 38-fold lower, 0.0996 µM
- CC(=O)/C(C=Nc1c(C)n(C)n(C)c1=O)=C(/O)c1ccccc1 — higher, > 50 µM
- O=c1c([OH2+])c(-c2ccc(O)cc2[O-])oc2cc(O)cc([O-])c12.O=c1c([OH2+])c(-c2ccc(O)cc2[O-])oc2cc(O)cc([O-])c12.[Ti+4] — higher, > 100 µM
- Cc1cc(=O)oc2cc(OC/C=C3\CCC(=O)O3)ccc12 — higher, > 92 µM
- COc1ccc(/C=C/C(=O)c2ccc(OC(=O)/C=C/c3ccccc3)cc2)cc1 — 26-fold higher, 99.4 µM

Point of comparison: `Cc1ccc(S(=O)(=O)Nc2ccc(-c3cc(-c4cccc(F)c4)c(C#N)c(N)n3)cc2)cc1`, GI50 3.74 µM. Against it:
- COc1cc(/C=C/C(=O)c2c(C)nc3ccccc3c2C)ccc1OCCCN1CCN(C(=O)c2ccco2)CC1 — 3.6-fold higher, 13.5 µM
- [CH3][Sn]([CH3])([CH3])[O][N+](=O)[O-] — higher, > 10 µM
- C[CH2][Sn]([CH2]C)([O]C(=O)c1ccc(OC)c(OC)c1OC)[O]C(=O)c1ccc(OC)c(OC)c1OC — higher, > 100 µM
- CN(C)c1ccc(N=C2C=CC(=O)c3ccccc32)cc1 — within 1.5-fold, 3.13 µM
- C[C@@H](Oc1cc(-n2cnc3ccc(OC[C@@H](O)CO)cc32)sc1C(N)=O)c1ccccc1Cl — 2.3-fold higher, 8.63 µM
- CCC[CH2][Pb]([Cl])([CH2]CCC)[CH2]CCC — 120-fold lower, 0.0306 µM
- Cc1cc(=O)oc2cc(OC/C=C3\CCC(=O)O3)ccc12 — 8.9-fold higher, 33.3 µM
